# Test results published in PubChem BioAssay (NCATS).
# “And” between values parts separate entries of the source, which are not always exact repeats. Equal entries are not always repeated. The shares of active, inactive and inconclusive entries below differ from those in the screen. Where a call stands in place of a potency, no number is given. For some of these results: Potencies beside an inconclusive call are fits to weak or partial responses and may not hold up. The source made the active and inactive calls. Unless noted, calls follow the shape of the dose curve; as a rule, active = well fitted curve in the direction sought with a large enough effect; inconclusive = small, poorly fitted or top-dose-only effect, or another doubt; inactive = no such curve, though single readings can be large; an effect the other way counts as inactive or inconclusive.
# Assays:
# [1] = biological target: Cytochrome P450 2D6 (Homo sapiens) (UniProt P10635); test: Cytochrome P450 family 2 subfamily D member 6 (CYP2D6) small molecule antagonists: luciferase biochemical (cell-free) qHTS assay (AID 1645840; active = well fitted curve in the direction sought with a large enough effect in the repeat runs; inconclusive = weak or mixed curves; inactive = no such curve, though single readings can be large; an effect the other way counts as inactive or inconclusive; also: nearly all actives have a fitted effect of over 55% in size; also: potency is read from the fitted curve at half-maximal effect)
# Sequence of UniProt P10635 (P10635 whole entry, looked up): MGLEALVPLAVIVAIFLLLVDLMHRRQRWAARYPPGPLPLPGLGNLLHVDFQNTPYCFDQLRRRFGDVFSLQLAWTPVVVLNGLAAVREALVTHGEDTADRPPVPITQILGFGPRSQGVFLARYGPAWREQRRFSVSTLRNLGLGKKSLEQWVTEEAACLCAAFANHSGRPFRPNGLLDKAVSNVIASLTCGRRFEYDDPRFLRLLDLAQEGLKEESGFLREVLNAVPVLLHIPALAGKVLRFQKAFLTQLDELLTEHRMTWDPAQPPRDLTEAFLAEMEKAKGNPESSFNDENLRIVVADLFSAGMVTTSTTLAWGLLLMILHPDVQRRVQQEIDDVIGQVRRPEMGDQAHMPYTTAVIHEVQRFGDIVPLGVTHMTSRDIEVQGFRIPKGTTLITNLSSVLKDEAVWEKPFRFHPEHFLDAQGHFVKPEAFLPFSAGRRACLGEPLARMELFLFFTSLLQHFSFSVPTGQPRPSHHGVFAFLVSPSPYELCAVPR
# Outline: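 P450-Glo CYP2D6 system: proluciferin substrate converted by enzyme to luciferin, read by luminescence proportional to activity. Enzyme-substrate mix with compound 10 min at room temperature, then NADPH regeneration 1 h before detection reagent.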
# [2] = biological target: Cytochrome P450 2C9 (Homo sapiens) (UniProt P11712); test: Cytochrome P450 family 2 subfamily C member 9 (CYP2C9) small molecule antagonists: luciferase biochemical (cell-free) qHTS assay (AID 1645842; active = well fitted curve in the direction sought with a large enough effect in the repeat runs; inconclusive = weak or mixed curves; inactive = no such curve, though single readings can be large; an effect the other way counts as inactive or inconclusive; also: nearly all actives have a fitted effect of over 55% in size; also: potency is read from the fitted curve at half-maximal effect)
# Sequence of UniProt P11712 (P11712 whole entry, looked up): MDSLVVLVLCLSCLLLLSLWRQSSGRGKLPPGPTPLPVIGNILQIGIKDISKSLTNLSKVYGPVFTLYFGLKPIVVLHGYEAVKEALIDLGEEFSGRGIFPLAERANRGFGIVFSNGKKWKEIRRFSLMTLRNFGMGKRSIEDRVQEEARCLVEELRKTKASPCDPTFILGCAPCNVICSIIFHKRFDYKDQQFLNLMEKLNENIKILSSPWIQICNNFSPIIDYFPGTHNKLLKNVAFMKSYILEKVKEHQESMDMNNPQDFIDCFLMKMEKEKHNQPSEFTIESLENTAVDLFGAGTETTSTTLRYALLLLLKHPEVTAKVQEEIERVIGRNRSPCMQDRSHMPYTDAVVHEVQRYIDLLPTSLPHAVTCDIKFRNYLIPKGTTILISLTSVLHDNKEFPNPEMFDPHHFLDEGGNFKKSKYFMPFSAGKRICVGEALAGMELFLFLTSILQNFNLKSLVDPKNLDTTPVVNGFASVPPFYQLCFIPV
# Outline: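 P450-Glo CYP2C9 system: proluciferin substrate with enzyme in mix containing 0.4% BSA, 10 min at room temperature, then NADPH regeneration solution added and incubated 1 h at 37C. Detection reagent stopped reaction; luminescence read after 20 min as RLU.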
# [3] = Primary qHTS for inhibitors of nuclear receptor binding SET domain protein 2 (NSD2) in an isogenic RCH-ACV NSD2 p.E1099K mutant (9B) (AID 1645876); conditions: activity change, negative = viability loss: at 44.9 µM (top of the series) unless noted; also: nearly all actives have a fitted effect of over 70% in size; also: potency is read from the fitted curve at half-maximal effect
# [4] = qHTS of pediatric cancer cell lines to identify multiple opportunities for drug repurposing: Primary screen for OHS-50 cells (AID 1347103); conditions: OHS-50 osteosarcoma viability, CellTiter-Glo luminescence, 48 h; activity change, negative = cytotoxic: at 57.3 µM (top of the series); also: nearly all actives have a fitted effect of over 40% in size
# Outline: (§1)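 Cells (500-1,000/well) rested 5 h, then received compounds for 48 h; metabolically active cells were measured by CellTiter-Glo luminescence. Final concentrations spanned up to 46 µM (MIPE, 11-point) or 0.59 nM-46 µM (NPC, 8-point) in primary screens, 11-point in follow-ups.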
# [5] = Primary qHTS for small molecule stabilizers of the endoplasmic reticulum resident proteome: Secreted ER Calcium Modulated Protein (SERCaMP) assay (AID 1508630); conditions: SH-SY5Y GLuc-SERCaMP (Gaussia luciferase released on ER calcium loss) secretion, thapsigargin, luminescence; activity change, negative = inhibition: at 38.4 µM (top of the series) unless noted; also: potency is read from the fitted curve at half-maximal effect
# Outline: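 The SH-SY5Y reporter protocol was run at 3 concentrations up to 38.3 uM (primary) or 11 concentrations (follow-up): 16 h compound, 100 nM thapsigargin for 4 h, then extracellular luciferase luminescence.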
# [6] = A High-Content qHTS Against Drug Library for the Identification of Small Molecules that Inhibit DYT1 Early Onset Primary Dystonia-Associated Cell Pathology (AID 1645839; calls by dose curve; also: potency is read from the fitted curve at half-maximal effect)
# Outline: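 Cells were seeded and left for 24 h, then dosed with compound alongside tetracycline induction of mutant EGFP-TorsinA. They were incubated for 48 h, fixed in 4% paraformaldehyde, permeabilized and imaged for mislocalization (%pathology) and cell count.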
# [7] = Primary qHTS for inhibitors of nuclear receptor binding SET domain protein 2 (NSD2) in an RCH-ACV wild type WT cells (2C) (AID 1645877); conditions: activity change, negative = cell killing: at 44.9 µM (top of the series) unless noted; also: nearly all actives have a fitted effect of over 70% in size; also: potency is read from the fitted curve at half-maximal effect
# MCC-13 = test: qHTS assay to identify novel small-molecules to repurpose for Merkel cell carcinoma treatment (AID 1296009); conditions: MCC and control cell lines, CellTiter-Glo viability, 72 h; series mostly up to 46 µM; also: nearly all actives have a fitted effect of over 60% in size; also: potency is read from the fitted curve at half-maximal effect
# Outline: (§2)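 Dose-response viability screen; 72 hr exposure at 37 degree celsius; CellTiter-Glo added, 10 min room temperature, luminescence read; RLUs scaled between no-cell and DMSO wells.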
# WaGa = test: as above; conditions: MCC and control cell lines, CellTiter-Glo viability, 72 h; series mostly up to 46 µM
# Outline: as §2
# [8] = qHTS of pediatric cancer cell lines to identify multiple opportunities for drug repurposing: Primary screen for SK-N-MC cells (AID 1347093); conditions: SK-N-MC viability, CellTiter-Glo luminescence, 48 h; activity change, negative = cytotoxic: at 46 µM (top of the series); also: potency is read from the fitted curve at half-maximal effect
# Outline: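 Metabolically active cells were quantified by ATP-dependent luminescence (CellTiter-Glo, 15 min at room temperature) following 48 h treatment. Cells had been plated at 500-1,000 per well and settled for 5 h beforehand.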
# [9] = qHTS of pediatric cancer cell lines to identify multiple opportunities for drug repurposing: Primary screen for SK-N-SH cells (AID 1347098); also: nearly all actives have a fitted effect of over 65% in size; also: potency is read from the fitted curve at half-maximal effect;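 as to activity change, negative = cytotoxic: DMSO served as neutral control and bortezomib at 2.3 µM as positive control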
# Outline: as §1
# SKOV3 = test: Primary qHTS to identify gynecologic anti-cancer compounds using libraries of approved drugs and bioactive compounds (AID 1345084); conditions: Gynecologic cancer cell panel viability, ATPlite luminescence, 48 h; series mostly up to 57.5 µM; also: nearly all actives have a fitted effect of over 55% in size; also: potency is read from the fitted curve at half-maximal effect
# Outline: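 Cells, 1,000 per well, plated 16 h, then exposed 48 h at 37 C to compounds. Viability by ATPlite luminescence after 15 min at room temperature.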
# MKL-1 = test: qHTS assay to identify novel small-molecules to repurpose for Merkel cell carcinoma treatment (AID 1296009); conditions: MCC and control cell lines, CellTiter-Glo viability, 72 h; series mostly up to 46 µM; also: nearly all actives have a fitted effect of over 60% in size; also: potency is read from the fitted curve at half-maximal effect
# Outline: as §2
# [10] = Drug repurposing screens with cells derived from glioblastoma tumor samples (AID 1345199); conditions: GBM patient neurospheres viability, ATP luminescence, 48 h; Potency: tumour line A unless noted; activity, negative = cell killing: at 46 µM (top of the series), tumour line A unless noted; also: nearly all actives have a fitted effect of over 40% in size; also: potency is read from the fitted curve at half-maximal effect
# Outline: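 Primary testing used CD133+ neurospheres from four GBM patients, seven concentrations, 48 h exposure and ATP-based viability; confirmation added three slower-growing patient lines.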
# [11] = qHTS of pediatric cancer cell lines to identify multiple opportunities for drug repurposing: Primary screen for BT-12 cells (AID 1347101); also: nearly all actives have a fitted effect of over 25% in size
# Outline: as §1
# [12] = qHTS of pediatric cancer cell lines to identify multiple opportunities for drug repurposing: Primary screen for A673 cells (AID 1347092); conditions: A673 Ewing sarcoma viability, CellTiter-Glo ATP luminescence, 48 h; activity change, negative = cytotoxic: at 46 µM (top of the series); also: potency is read from the fitted curve at half-maximal effect; nearly all actives have a fitted effect of over 45% in size
# Outline: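 A673 cells (500-1,000 cells/well in growth media) were pre-incubated 5 h at 37 degrees C, then exposed to compounds for 48 h. Viability was read as CellTiter-Glo luminescence; concentration-response curves came directly from the primary screen.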
# [13] = qHTS of pediatric cancer cell lines to identify multiple opportunities for drug repurposing: Primary screen for NB-EBc1 cells (AID 1347095); also: potency is read from the fitted curve at half-maximal effect
# Outline: (§3)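 Plated cells (500-1,000 per well, growth media) were allowed to settle for 5 hours, treated with compound dilutions for 48 hours, then lysed with CellTiter-Glo for 15 min at room temperature before luminescence reading.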
# [14] = qHTS of pediatric cancer cell lines to identify multiple opportunities for drug repurposing: Primary screen for Saos-2 cells (AID 1347097); conditions: Saos-2 viability, CellTiter-Glo ATP luminescence, 48 h; activity change, negative = cytotoxic: at 46 µM (top of the series); also: nearly all actives have a fitted effect of over 40% in size; also: potency is read from the fitted curve at half-maximal effect
# Outline: as §3
# MKL-2 = test: qHTS assay to identify novel small-molecules to repurpose for Merkel cell carcinoma treatment (AID 1296009); conditions: MCC and control cell lines, CellTiter-Glo viability, 72 h; activity change, negative = cytotoxicity: at 46 µM (top of the series); also: nearly all actives have a fitted effect of over 60% in size; also: potency is read from the fitted curve at half-maximal effect
# Outline: as §2
# UISO = test: as above; conditions: MCC and control cell lines, CellTiter-Glo viability, 72 h; series mostly up to 46 µM
# Outline: as §2
# Tags tell the direction and shape of the fitted curve.
structure (smiles),measurement,setting,value
CC(C)N(CCCNC(=O)Nc1ccc(C(C)(C)C)cc1)C[C@H]1O[C@@H](n2ccc3c(N)ncnc32)[C@H](O)[C@@H]1O,Potency,[1],"inconclusive: 26.8 µM [inhibitor, single point]"
same,Potency,[2],"inconclusive: 21.3 µM [inhibitor, single point]"
same,Potency,[3],"inconclusive: 41.7 µM [inhibitor, partial curve, poor fit]"
NCCC(O)(P(=O)(O)O)P(=O)(O)O,Potency,[4],inactive
same,Potency,[5],"inconclusive: 31.6 µM [inhibitor, single point]"
same,Potency,[6],inactive
same,Potency,[7],inactive
same,Potency,MCC-13,inactive
same,Potency,WaGa,inactive
CC(C)C[C@H](CC(=O)NO)C(=O)N[C@H](C(=O)N[C@@H](C)C(=O)NCCN)C(C)(C)C,"activity change, negative = cell killing",[7],inactive: -8.71% [at 9.23 µM]
COc1nccnc1NS(=O)(=O)c1ccc(N)cc1,Potency,[8],inactive
same,Potency,[9],inactive
same,Potency,[5],"inconclusive: 31.6 µM [inhibitor, single point]"
same,Potency,[3],inactive
same,Potency,MCC-13,inactive
same,Potency,WaGa,inactive
same,Potency,SKOV3,inactive
CCOC(=O)OCC/C(SC(=O)OCC)=C(\C)N(C=O)Cc1cnc(C)nc1N,Potency,[4],inactive
same,Potency,[3],"inconclusive: 33.5 µM [inhibitor, single point]"
same,Potency,[7],"inconclusive: 29.9 µM [inhibitor, single point]"
same,Potency,MKL-1,inactive
same,Potency,SKOV3,inactive
same,Potency,[10],inactive
O=c1[nH]c(=O)n([C@H]2O[C@H](CO)[C@@H](O)[C@@H]2O)cc1/C=C\Br,Potency,[11],inactive
same,Potency,[6],inactive
same,Potency,[2],inactive
same,Potency,[3],inactive
same,Potency,[7],inactive
same,Potency,MCC-13,inactive
same,Potency,SKOV3,"inconclusive: 28.2 µM [rising, single point]"
CN(C)CCCN1c2ccccc2Sc2ccc(C(F)(F)F)cc21,Potency,[12],"inconclusive: 26.6 µM [cytotoxic, single point]"
same,Potency,[8],"inconclusive: 13.3 µM [cytotoxic, partial curve, poor fit]"
same,Potency,[13],"inconclusive: 33.5 µM [cytotoxic, single point]"
same,Potency,[14],"inconclusive: 26.6 µM [cytotoxic, single point]"
same,Potency,[5],"inconclusive: 31.6 µM [inhibitor, single point]"
same,Potency,[6],"inconclusive: 22.4 µM [inhibitor, single point]"
same,Potency,[7],active: 18.8 µM
same,Potency,MKL-1,"inconclusive: 23.7 µM [inhibitor, single point]"
same,Potency,MKL-2,active: 13.3 µM
same,Potency,UISO,"inconclusive: 23.7 µM [inhibitor, single point]"
same,Potency,SKOV3,"inconclusive: 39.8 µM [cytotoxic, single point]"
CC(C)=CCC/C(C)=C/CC/C(C)=C/CCC(=O)OC/C=C(\C)CCC=C(C)C,Potency,[5],"inconclusive: 3.55 µM [inhibitor, partial curve, poor fit]"
same,Potency,[1],inactive
same,Potency,[7],inactive
same,Potency,MKL-1,inactive
same,Potency,[10],active: 35.5 µM
COc1cc(C(=O)NC2CCCNC2)cc(OC)c1OC (stereo unspecified),Potency,MKL-1,inactive
same,Potency,MKL-2,inactive
same,Potency,[10],"inconclusive: 17.8 µM [inhibitor, partial curve]"
CN1CCC(=C2c3ccccc3CCc3cccnc32)CC1,Potency,[4],inactive
same,Potency,[5],"inconclusive: 11.2 µM [inhibitor, partial curve, poor fit]"
same,Potency,[7],"inconclusive: 29.9 µM [inhibitor, single point]"
same,Potency,MKL-1,inactive
same,Potency,SKOV3,inactive
O=C(CCBr)N1CCN(C(=O)CCBr)CC1,Potency,[9],"inconclusive: 0.137 µM [cytotoxic, full curve, poor fit]"
same,Potency,[6],inactive
same,Potency,[1],"inconclusive: 9.77 µM [inhibitor, partial curve]"
same,Potency,MKL-1,inactive
same,Potency,SKOV3,"inconclusive: 39.8 µM [rising, single point]"
same,Potency,[10],"inconclusive: 1.26 µM [inhibitor, partial curve, poor fit]"
OC[C@H]1O[C@@H](O[C@@H]2[C@@H](CO)O[C@](O)(CO)[C@H]2O)[C@H](O)[C@@H](O)[C@H]1O,Potency,[14],inactive
same,Potency,[4],inactive
same,Potency,[2],"inconclusive: 37.9 µM [inhibitor, single point]"
same,Potency,MCC-13,inactive
same,Potency,[10],inactive
CCN(CC)CCOC(=O)C(c1ccccc1)c1ccccc1,Potency,[2],"inconclusive: 30.9 µM [inhibitor, single point]"
same,Potency,[3],inactive
same,Potency,MKL-1,inactive
same,Potency,MKL-2,inactive
same,Potency,UISO,inactive
CCC1C(=O)OCC1Cc1cncn1C (stereo unspecified),Potency,[9],inactive
same,Potency,[5],"inconclusive: 22.4 µM [inhibitor, single point] and inconclusive: 2.24 µM [inhibitor, full curve, poor fit]"
same,Potency,[2],inactive
same,Potency,[7],inactive
same,Potency,MKL-1,inactive
same,Potency,WaGa,inactive
